Measurements from the supplement of paper PMC8728848.
Some of the results follow.

Key:
Test in all cases: glycan array binding signal (z-score within array); higher = stronger binding
Conditions in all cases: glycan notation: IUPAC condensed, linker removed
[1] = target: Gal(b1-4)GlcNAc(a1-6)Gal(b1-4)GlcNAc
Method in brief: (§1)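 Columns mapping to the same glycan were averaged after glycan names were converted to IUPAC-condensed notation. The data come from 3228 arrays in the Consortium for Functional Glycomics database, limited to those with an available protein sequence. Binding is reported as a within-array Z-score averaged across arrays of one protein sequence and across linkers.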

[2] = target: Gal(b1-4)GlcNAc(b1-2)Man(a1-3)Man(b1-4)GlcNAc(b1-4)GlcNAc
Method in brief: as §1

[3] = target: Gal(b1-4)GlcNAc(b1-2)Man(a1-3)[Gal(b1-4)GlcNAc(b1-2)Man(a1-6)]Man(b1-4)GlcNAc(b1-4)GlcNAc
Method in brief: as §1

[4] = target: Gal(b1-4)GlcNAc(b1-2)Man(a1-3)[Gal(b1-4)GlcNAc(b1-2)Man(a1-6)]Man(b1-4)GlcNAc(b1-4)[Fuc(a1-6)]GlcNAc
Method in brief: as §1

[5] = target: Gal(b1-4)GlcNAc(b1-2)Man(a1-3)[GlcNAc(b1-2)Man(a1-6)]Man(b1-4)GlcNAc(b1-4)GlcNAc
Method in brief: as §1

[6] = target: Gal(b1-4)GlcNAc(b1-2)Man(a1-3)[Man(a1-6)]Man(b1-4)GlcNAc(b1-4)GlcNAc
Method in brief: as §1

[7] = target: Gal(b1-4)GlcNAc(b1-2)Man(a1-6)Man(b1-4)GlcNAc(b1-4)GlcNAc
Method in brief: as §1

[8] = target: Gal(b1-4)GlcNAc(b1-2)Man(a1-6)[GlcNAc(b1-2)Man(a1-3)]Man(b1-4)GlcNAc(b1-4)GlcNAc
Method in brief: as §1

[9] = target: Gal(b1-4)GlcNAc(b1-2)Man(a1-6)[Man(a1-3)]Man(b1-4)GlcNAc(b1-4)GlcNAc
Method in brief: as §1

[10] = target: Gal(b1-4)GlcNAc(b1-2)[Gal(b1-4)GlcNAc(b1-4)]Man(a1-3)[Gal(b1-4)GlcNAc(b1-2)Man(a1-6)]Man(b1-4)GlcNAc(b1-4)GlcNAc
Method in brief: as §1

[11] = target: Gal(b1-4)GlcNAc(b1-2)[Gal(b1-4)GlcNAc(b1-4)]Man(a1-3)[Gal(b1-4)GlcNAc(b1-2)[Gal(b1-4)GlcNAc(b1-6)]Man(a1-6)]Man(b1-4)GlcNAc(b1-4)GlcNAc
Method in brief: as §1

[12] = target: Gal(b1-4)GlcNAc(b1-3)Gal(b1-3)GlcNAc
Method in brief: as §1

[13] = target: Gal(b1-4)GlcNAc(b1-3)Gal(b1-4)Glc
Method in brief: as §1

[14] = target: Gal(b1-4)GlcNAc(b1-3)Gal(b1-4)GlcNAc
Method in brief: as §1

[15] = target: Gal(b1-4)GlcNAc(b1-3)Gal(b1-4)GlcNAc(b1-3)Gal(b1-4)GlcNAc
Method in brief: as §1

[16] = target: Gal(b1-4)GlcNAc(b1-3)Gal(b1-4)[Fuc(a1-3)]GlcNAc(b1-3)Gal(b1-4)[Fuc(a1-3)]GlcNAc
Method in brief: as §1

[17] = target: Gal(b1-4)GlcNAc(b1-3)GalNAc
Method in brief: as §1

[18] = target: Gal(b1-4)GlcNAc(b1-3)[Gal(b1-4)GlcNAc(b1-6)]Gal(b1-4)GlcNAc
Method in brief: as §1

[19] = target: Gal(b1-4)GlcNAc(b1-3)[Gal(b1-4)GlcNAc(b1-6)]GalNAc
Method in brief: as §1

[20] = target: Gal(b1-4)GlcNAc(b1-3)[GlcNAc(b1-6)]Gal(b1-4)GlcNAc
Method in brief: as §1

[21] = target: Gal(b1-4)GlcNAc(b1-6)Gal(b1-4)GlcNAc
Method in brief: as §1

[22] = target: Gal(b1-4)GlcNAc(b1-6)GalNAc
Method in brief: as §1

[23] = target: Gal(b1-4)GlcNAc(b1-6)[Gal(b1-3)]GalNAc
Method in brief: as §1

[24] = target: Gal3S(b1-3)GalNAc
Method in brief: as §1

[25] = target: Gal3S(b1-3)GlcNAc
Method in brief: as §1

[26] = target: Gal3S(b1-3)[Fuc(a1-4)]GlcNAc
Method in brief: as §1

[27] = target: Gal3S(b1-4)Glc
Method in brief: as §1

[28] = target: Gal3S(b1-4)Glc6S
Method in brief: as §1

[29] = target: Gal3S(b1-4)GlcNAc
Method in brief: as §1

[30] = target: Gal3S(b1-4)GlcNAc6S
Method in brief: as §1

[31] = target: Gal3S(b1-4)[Fuc(a1-3)]Glc
Method in brief: as §1

[32] = target: Gal3S(b1-4)[Fuc(a1-3)]Glc6S
Method in brief: as §1

[33] = target: Gal3S4S(b1-4)GlcNAc
Method in brief: as §1

[34] = target: Gal3S6S(b1-4)GlcNAc
Method in brief: as §1

[35] = target: Gal3S6S(b1-4)GlcNAc6S
Method in brief: as §1

[36] = target: Gal4S(b1-4)GlcNAc
Method in brief: as §1

[37] = target: Gal4S6S(b1-4)GlcNAc
Method in brief: as §1

B1: Gal 3 (Homo sapiens), P17931 (protein)
chain: MADNFSLHDALSGSGNPNPQGWPGAWGNQPAGAGGYPGASYPGAYPGQAPPGAYPGQAPPGAYHGAPGAYPGAPAPGVYPGPPSGPGAYPSSGQPSAPGAYPATGPYGAPAGPLIVPYNLPLPGGVVPRMLITILGTVKPNANILDFQRGNDVAFHFNPRFNENNRRVIVCNTKLDNNWGREERQSVFPFESGKPFKIQVLVEPDHFKVAVNDAHLLQYNHRVKKLNEISKLGISGDIDLTSASYTMI
- glycan array binding signal (z-score) [1]: -0.37
- glycan array binding signal (z-score) [2]: -0.377
- glycan array binding signal (z-score) [3]: 0.966
- glycan array binding signal (z-score) [4]: -0.235
- glycan array binding signal (z-score) [5]: -0.094
- glycan array binding signal (z-score) [6]: -0.347
- glycan array binding signal (z-score) [7]: -0.379
- glycan array binding signal (z-score) [8]: -0.374
- glycan array binding signal (z-score) [9]: -0.386
- glycan array binding signal (z-score) [10]: 0.908
- glycan array binding signal (z-score) [11]: 2.3
- glycan array binding signal (z-score) [12]: 2.35
- glycan array binding signal (z-score) [13]: 2.27
- glycan array binding signal (z-score) [14]: 3.4
- glycan array binding signal (z-score) [15]: 4.37
- glycan array binding signal (z-score) [16]: -0.258
- glycan array binding signal (z-score) [17]: -0.387
- glycan array binding signal (z-score) [18]: 1.06
- glycan array binding signal (z-score) [19]: -0.032
- glycan array binding signal (z-score) [20]: -0.307
- glycan array binding signal (z-score) [21]: -0.389
- glycan array binding signal (z-score) [22]: -0.391
- glycan array binding signal (z-score) [23]: -0.389
- glycan array binding signal (z-score) [24]: -0.389
- glycan array binding signal (z-score) [25]: 1.02
- glycan array binding signal (z-score) [26]: -0.39
- glycan array binding signal (z-score) [27]: -0.385
- glycan array binding signal (z-score) [28]: -0.164
- glycan array binding signal (z-score) [29]: 0.23
- glycan array binding signal (z-score) [30]: 0.983
- glycan array binding signal (z-score) [31]: -0.39
- glycan array binding signal (z-score) [32]: -0.387
- glycan array binding signal (z-score) [33]: -0.393
- glycan array binding signal (z-score) [34]: -0.381
- glycan array binding signal (z-score) [35]: -0.388
- glycan array binding signal (z-score) [36]: -0.391
- glycan array binding signal (z-score) [37]: -0.391
